The campaign covered roughly 370,000 compounds. About 500 (0.14%) were called active. The shares of active, inactive and inconclusive entries below differ from those in the screen. Calls follow the shape of the dose curve; as a rule, active = well fitted activation curve with a large enough effect; inconclusive = small, poorly fitted or top-dose-only effect; inactive = no such curve, though single readings can be large or run the other way. Potencies of inconclusive entries are left out as doubtful fits.
Experiment: qHTS of alpha-syn Inhibitors; also: nearly all actives have a fitted effect of over 65% in size; as to growth rescue (activation): % of control where 0% means no effect
Details: Yeast expressing alpha-synuclein, BacTiter-Glo, 24 h; Potency: growth rescue unless noted; growth rescue (activation): at 46.1 µM (top of the series) unless noted
Outline: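 Rescue of yeast growth: cells expressing toxic alpha-synuclein, induced in galactose at OD600 0.02, incubated with compound 24 h at 30 C. ATP luminescence quantified growth; inhibitors of toxicity appear as activators.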
Potency is read from the fitted curve at half-maximal effect; tags tell the direction and shape of the fitted curve.

SMILES | growth rescue (activation) | Potency
Cc1ccc(-n2nnnc2-c2cccc(C)c2)cc1 | inactive: 0.0167% | –
COC(=O)C(Cc1cncn1COCc1ccccc1)NC(=O)OC(C)(C)C (configuration not stated) | – | inconclusive [activator, single point]
CC1(C)CC(=O)c2c(O)cc(OCC(=O)NCCc3ccc(S(N)(=O)=O)cc3)cc2O1 | inactive: 2.01% | –
Cc1cc(-c2ccccc2)nc(SCc2ccc(C(=O)O)cc2)n1 | – | inconclusive [activator, partial curve]
COc1ccc(OC)c(NC(=O)CSc2nnc(CNC(=O)c3cccs3)o2)c1 | – | inconclusive [activator, single point]
O=S(=O)(Nc1ccc2c(c1)OCCO2)c1cccc(F)c1 | inactive: 9.99% | –
O=[N+]([O-])c1cccc2c(S(=O)(=O)N3CCOCC3)cccc12 | – | inconclusive [activator, partial curve]
COc1ccc(CC(NC(C)=O)C(=O)N2CCN(C(=O)N(C(C)C)C(C)C)CC2)cc1 (configuration not stated) | – | inconclusive [activator, single point]
O=C(CC(Nc1ccc(Cl)cc1)C(=O)O)c1ccccc1 (configuration not stated) | – | inconclusive [activator, partial curve]
CCOC(=O)c1ccc(NC(=O)CCc2c(C)nc3ncnn3c2C)cc1 | – | inconclusive [activator, single point]
OC(c1ccc(Cl)c(Cl)c1)c1ncc(-c2ccccc2F)[nH]1 (configuration not stated) | – | inconclusive [activator, single point]
Cc1ncoc1C(=O)N1CCCC(C(=O)c2cccc(C(F)(F)F)c2)C1 (configuration not stated) | – | inconclusive [activator, single point]
COc1cc(C[C@@H](C)[C@@H](C)Cc2ccc(O)c(OC)c2)ccc1O | – | inconclusive [activator, single point]
COc1ccc(Cc2nnc(SCC(=O)Nc3ccccc3C)n(N)c2=O)cc1 | inactive: -11.3% | –
O=C(Nc1ccc(OC(F)(F)F)cc1)Nc1cccnc1 | – | inconclusive [activator, single point]
O=C(c1ccc(Cl)c(F)c1F)N1CCOCC1 | – | inconclusive [activator, single point]
CSc1cccc(NC(=O)CCCn2c(=O)c3cccn3c3cccnc32)c1 | – | inconclusive [activator, single point]
CC(/C=N/n1c(-c2ccco2)n[nH]c1=S)=C\c1ccccc1 | inactive: 9.51% | –
Cc1ccc(NC(=O)c2ccc(NCc3ccc(F)cc3)nc2)cc1 | – | inconclusive [activator, single point]
O=C(c1nc2nc(-c3ccc(Cl)cc3)cc(C(F)(F)F)n2n1)N1CCOCC1 | inactive: 3.12% | –
Cc1ccc(CN(CC(O)COc2cccc3[nH]cc(C)c23)C(C)(C)C)cc1 (configuration not stated) | inactive: 13.5% | –
COc1cc(C2Oc3ccccc3C=C2[N+](=O)[O-])cc(OC)c1OC (configuration not stated) | inconclusive: -48.9% [activator] | –
CC(C)(C)NC(=O)C[n+]1ccc(C(N)=O)cc1 | – | active: 35.5 µM
Cc1ccc(NS(=O)(=O)c2cc(C(=O)N3CCc4ccccc4C3)ccc2Cl)cc1 | – | inconclusive [activator, single point]

SMILES | growth rescue (activation) | Potency
C=CCn1c(SCC#N)nc2cc(Cl)ccc2c1=O | inactive: 1.39% | –
Cc1cccc(-c2ccc(NC(=O)C3CCN(CC4CC4)CC3)cc2)c1 | – | inconclusive [activator, single point]
CC1Cc2ccccc2N1C(=O)COC(=O)c1cccc(Br)c1 (configuration not stated) | – | inconclusive [activator, single point]
C[C@H](NC(=O)[C@@H]1CCCN1C(=O)OC(C)(C)C)c1ccccc1 | inactive: -17.1% | –
COc1ccc(C2CC(=O)N(CC(=O)Nc3cc(C)ccc3C)c3ccccc3S2)cc1 (configuration not stated) | – | inconclusive [activator, single point]
C=CCN1C(=O)/C(=C/c2ccc(OCC(=O)O)cc2)S/C1=N/c1nccs1 | inactive: 3.22% | –
O=C(O)c1ccc(COc2ccc([N+](=O)[O-])cc2Cl)cc1 | inactive: -0.286% | –
O=C(N/N=C/c1cccc([N+](=O)[O-])c1O)c1cccs1 | – | active: 7.94 µM
O=C(Nc1ccccc1)C1=C[C@@H](c2ccc(Br)cc2)C[C@@H](OCc2ccc(CO)cc2)O1 | – | inconclusive [activator, single point]
CN(C)c1ccc(N=Nc2ccc(S(=O)(=O)O)cc2)cc1 | inactive: -3.89% | –
Cc1ccc(NC(=S)Nc2ccc3cn[nH]c3c2)cc1C | – | inconclusive [activator, single point]
CCCOc1ccc(C=Nc2ccc(OC)c(S(=O)(=O)N3CCOCC3)c2)c(O)c1 | – | inconclusive [activator, single point]
O=C(N[C@H]1CCC(=O)N(CCSc2ccc(Br)cc2)CC1)OCc1ccccc1 | – | inconclusive [activator, single point]
CC[C@@]12C(=O)N(c3cccc(Br)c3)C(=O)N1[C@H](c1ccc(F)cc1)[C@@H]1C(=O)N(C3CCCCC3)C(=O)[C@@H]12 | – | inconclusive [activator, single point]
COc1ccc(-c2csc3ncnc(N4CCN(c5ccccc5O)CC4)c23)cc1 | – | inconclusive [activator, single point]
O=C(/C=C/c1ccccc1[N+](=O)[O-])c1ccccc1Br | inconclusive: -59.3% [activator] | –
CC(C)(c1ccccc1)c1ccc(OCCn2cnc3ccccc3c2=O)cc1 | – | inconclusive [activator, single point]
CCOc1cccc2cc(C(N)=O)c(=NCc3ccccc3)oc12 | – | inconclusive [activator, single point]
CCOC(=O)C(C)Sc1ncc(OC)c(Sc2ccc(Cl)cc2)n1 (configuration not stated) | – | inconclusive [activator, single point]
CN(c1ccccc1C(=O)Nc1ccc2c(c1)n(C)c(=O)n2C)S(C)(=O)=O | inactive: -2.1% | –
O=C(CCc1ccccc1)NNC(=S)NC(=O)c1ccccc1 | inconclusive: 0.242% [activator] | –
CCCCOC(=O)c1ccc(Nc2ncnc3nc[nH]c23)cc1 | inactive: -4.18% | –
O=C(/C=C/c1ccc(F)cc1)c1ccccc1Br | – | inconclusive [activator, single point]
Oc1ccccc1-c1nc(/C=C/c2ccccc2Cl)nn1-c1ccccc1 | inactive: -6.1% | –

SMILES | growth rescue (activation) | Potency
O=C(CSc1ccccn1)N/N=C/c1cc([N+](=O)[O-])ccc1O | – | inconclusive [activator, single point]
CN(C)CCCNc1nc2cc(-c3ccn[nH]3)sc2c(=O)n1C | – | inconclusive [activator, single point]
Oc1c(C(Nc2ccccn2)c2ccccc2)ccc2cccnc12 (configuration not stated) | – | inconclusive [activator, partial curve, poor fit]
CN(C)CCNC(=O)c1cc2c(=O)n(C)c3ccccc3c2n1C | – | inconclusive [activator, single point]
CCOC(=O)[C@@H]1[C@H]2COc3cc(OC)ccc3[C@@H]2N2C(=O)N(c3cccc(F)c3)C(=O)[C@@]12C | inactive: -3.39% | –
C/C(=N\NC(=O)c1ccccc1OCc1ccc(F)cc1)c1ccccn1 | – | inconclusive [activator, single point]
CC(OC(=O)c1ccccc1Nc1ccc(SC(F)F)cc1)C(N)=O (configuration not stated) | inactive: -0.21% | –
CCCN1C[C@@H](C)[C@@H](OC)CN(C)C(=O)c2ccc(NC(=O)c3cccc(F)c3)cc2OC[C@H]1C | – | inconclusive [activator, single point]
CN(C1CCCCC1)S(=O)(=O)c1ccc(SCC(=O)C(C)(C)C)nc1 | – | inconclusive [activator, single point]
C(=C\c1nc(-c2ccncc2)no1)/c1ccccc1 | inactive: 6.68% | –
Cc1ccc(/C=C/C(=O)OCn2nnc3ccccc3c2=O)o1 | – | inconclusive [activator, single point]
O=C1Oc2ccccc2C(=O)/C1=C/c1ccccc1O | inconclusive: -62.1% [activator] | –
CN1[C@@H]2CCC[C@H]1CC(NC(=O)c1nn(C)c3ccccc13)C2 (some centres not stated) | – | inconclusive [activator, single point]
Cc1cc(C(=O)C(C)Sc2cccc[n+]2[O-])c(C)n1-c1ccc(Cl)cc1 (configuration not stated) | – | active: 2.82 µM
Cc1ccc(SCCC(=O)OCn2nnc3ccccc3c2=O)cc1 | inactive: 3.58% | –
N#CCSc1nnc2sc3ccccc3n12 | inactive: -14% | –
CCC(C(=O)NCc1ccc(OC)cc1)n1nc(C)n2c(cc3occc32)c1=O (configuration not stated) | – | inconclusive [activator, single point]
CCN=C1SC(CC(=O)Nc2sc(C)c(C)c2C(=O)OC)C(=O)N1CC (configuration not stated) | – | inconclusive [activator, single point]
COc1ccccc1N1CCN(C(=O)c2cc(-c3ccc4c(c3)OCO4)on2)CC1 | inactive: -0.557% | –
O=C(CSc1nc2ncccc2[nH]1)NCCc1ccccc1 | – | inconclusive [activator, single point]
CCOC(=O)C1CCCN(C(=O)c2ccc(-c3ccc([N+](=O)[O-])cc3)o2)C1 (configuration not stated) | – | inconclusive [activator, partial curve]
CCOC(=O)c1ccc2c(c1)N(CC(=O)N(C)c1ccccc1)C(=O)c1ccccc1S2 | inactive: 1.71% | –
Cc1ccc(C(=O)N2CCN(c3ccc(F)cc3)CC2)cc1S(=O)(=O)N1CCCCC1 | inactive: 10% | –
CC(C)(C)OC(=O)N[C@@H](Cc1ccccc1)C(=O)NCC1CCC(C(=O)N[C@@H](CCC(N)=O)C(=O)O)CC1 (some centres not stated) | – | inconclusive [activator, single point]

Reference: PubChem BioAssay AID652106 (National Center for Advancing Translational Sciences (NCATS), 2013)
